This experiment deals with NCI-H322M lung. In words: DTP human tumour cell line panel, 48 h.

A word on the GI50: it is the concentration that inhibits growth by half. Broadly, the TGI is the concentration giving total growth inhibition. A high value points to less potent growth arrest.

Values joined by “and” are separate entries in the source; they are usually repeats but may differ in a detail not shown here. Equal entries are not always repeated.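 Step 1: Grow cells in 96-well plates. Step 2: Expose to compound for 48 hours at 5 concentrations. Step 3: Interpolate endpoints linearly; if unreached, use highest concentration. GI50 = concentration required for 50% inhibition of growth. At the TGI there is no net growth.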

In the case of `CCCN(CCC)c1ccc(C=O)c(OC)c1`, the GI50 was 47.1 µM and the total growth inhibition concentration (TGI) was over 100 µM. With `C=CC1(C)/C(=N\O)C(C)(CC)C(=O)N1O` (stereo not given), the TGI was over 100 µM. `CN1C(=O)NC2(O)c3ccccc3C(=O)C12O` (stereo not given): the TGI was over 100 µM. As to `O=C1c2ccccc2N2OC3C4CCC(C4)C3C12c1ccccc1` (stereo not given), the concentration for total growth inhibition (TGI) was over 100 µM. For `COc1cccc2c1C(=O)c1c(O)c3c(c(O)c1C2=O)C[C@@](O)(C(=O)COC(=O)c1cccnc1)C[C@@H]3OC1CC(N)C(O)C(C)O1` (stereo not given in full), the 50% growth inhibitory concentration (GI50) is 0.365 µM and the concentration for total growth inhibition (TGI) came out at 3.75 µM. For `COc1ccc(CNCCCN2C(=O)c3ccc4c5c(ccc(c35)C2=O)C(=O)N(CCCNCCCCNCCCN)C4=O)c(OC)c1OC`, in that order: 2.15 µM and 11.8 µM.

`COc1ccccc1OCc1nnc(SCC(=O)O)n1-c1ccccc1` registered a concentration for total growth inhibition (TGI) of over 100 µM. On to `O=C(CN1CCOCC1)NC1=Nc2ncccc2C(=O)NN1`, for which the TGI is over 10 µM. Regarding `CC1(C)C2CCC1(C)C(NC(=O)CCN1CCOCC1)C2` (stereo not given), the total growth inhibition concentration (TGI) was over 100 µM. In turn, `CC[O+]=c1cccc2ssnc1-2` showed a TGI of over 100 µM. For `S=C(NNC1=NCCCCN1)Nc1ccccc1`, the TGI is over 100 µM. With `C/C(=C\c1ccccc1)C(O)S(=O)(=O)O` (stereo not given), the TGI was over 100 µM. `CCN(CC)CC1CCCCN1CC(=O)N1c2ccc(Br)cc2C(=O)Nc2cccnc21` (stereo not given): the TGI was over 100 µM.

For `CCCNCC(O)/C=C/[Si](C)(C)C` (stereo not given) (tested in a mixture with another compound), the total growth inhibition concentration (TGI) is over 100 µM. In turn, `c1csc(-c2cc(-c3ccsc3)c(-c3cccs3)s2)c1` came in with a TGI of over 100 µM.

For the compound `COc1cc(C)c(N(C)C(=O)CN(C)C)cc1Nc1nc(Nc2cccc(F)c2C(N)=O)c2cc[nH]c2n1`, the GI50 is over 22.3 µM and the concentration for total growth inhibition (TGI) is over 25 µM.

On to `CNC(=S)N/N=C(\C)c1ccc(OC)cc1O`, for which the concentration for total growth inhibition (TGI) is over 100 µM. Still for that read-out and setting: then `O=C(c1cccs1)N(C(=S)OCc1ccccn1)c1ccccc1`, with over 100 µM; and `COC(=O)[C@@H]1C[C@H]2[C@H](c3ccccc3Br)[C@@H](OC(C)=O)[C@@H](OCc3ccccc3)ON2O1`, with over 100 µM.

Turning to `CCOC(=O)c1c(SCC#N)n(-c2ccccc2)c(=S)n(-c2ccccc2)c1=O`, the TGI was over 100 µM. On to `Cc1nnc2nc(-c3ccc(Cl)cc3Cl)cc(-c3ccc(Cl)cc3)n12`, for which the concentration for total growth inhibition (TGI) is over 100 µM. With `C[n+]1ccccc1/C=C/c1ccc2c(c1)OCO2`, the TGI was over 10 µM.

In the case of `O=S(O)CCCCSSCCCCS(=O)(O)=S`, the TGI is over 100 µM. With `COc1ccc(C(=O)N=C2N(c3ccccc3)C(=Nc3ccccc3)C(=Nc3ccccc3)N2c2ccccc2)cc1`, the TGI was over 100 µM.

In turn, `C/C=C1/CN2CC[C@@H]3c4ccccc4N4[C@H](C(=O)OC)[C@H]1C[C@H]2[C@]34/C=C/C1=COC[C@@H]2[C@H]1C[C@H]1c3c(c4ccccc4n3C)C[C@@H]2N1C` showed a total growth inhibition concentration (TGI) of 7.69 µM. For the compound `COc1cc2c(cc1OCCN1C(=O)c3cccc4cccc(c34)C1=O)N=C[C@@H]1CCCN1C2=O`, the GI50 is 42.2 µM; the concentration for total growth inhibition (TGI) was 50 µM and > 100 µM. Consider `CCOc1ccccc1N=NC1C(=O)N(C(=O)CC(=O)Nc2ccccc2Cl)N=C1C` (stereo not given), for which the TGI was over 100 µM. Compound `COC(=O)c1ccc(/C=N/c2cc(C)nn2-c2ccccc2)cc1` came in with a TGI of over 100 µM.

For the compound `Cc1c2ccccc2nc2[nH]c3ccncc3c12`, the concentration for total growth inhibition (TGI) turned out to be 90.1 µM. `O=C(CN1C(=O)c2ccccc2C1=O)OC1C=CCCC1` (stereo not given) yielded a TGI of over 100 µM. For `Cc1occc1C(=S)Nc1ccc(Cl)c(C(=O)OCC2CC2)c1`, the total growth inhibition concentration (TGI) is over 100 µM.

Turning to `[O-]c1c(-c2ccccc2)[se]c(-c2ccccc2)[n+]1-c1ccccc1`, the total growth inhibition concentration (TGI) was 16.7 µM. `COC(=O)/C1=C/C2CC(/C=C(/c3ccccc3)C(=O)O1)C2` yielded a concentration for total growth inhibition (TGI) of over 100 µM.

The compound `Oc1ccc2ccccc2c1N=Nc1ccc(N=Nc2ccccc2)cc1` gave a concentration for total growth inhibition (TGI) of over 100 µM.

`Nc1nc(N)c2ncn(Cc3c(Cl)cccc3Cl)c2n1` gave a concentration for total growth inhibition (TGI) of over 100 µM. Regarding `CCOC(=O)c1c(N2CCOCC2)[nH]c(=O)c(C(c2ccc(N(C)C)cc2)c2c(O)c(C(=O)OCC)c(N3CCOCC3)[nH]c2=O)c1O`, the TGI was over 100 µM. On the same count and under the same terms, then `C#CCCCCC#CC1CCCC1C1=CC(=O)c2ccccc21` (stereo not given), with 26.4 µM; and `CCOC(=O)C1C(=O)CC(C)(O)C(C(=O)OCC)C1c1ccc(O)c(OC)c1` (stereo not given), with over 100 µM. Regarding `CN(C)c1ccc2c(SCC(=O)OCC(=O)[C@@]3(O)CC[C@H]4[C@@H]5CCC6=CC(=O)C=C[C@]6(C)[C@H]5C(=O)C[C@@]43C)c3ccc(N(C)C)cc3nc2c1`, the TGI is over 100 µM.

For `CC(C)[C@H](COC(C)(C)C)N=CN1CSc2ccccc21`, the TGI amounted to 82 µM. `OC(CCN1CCN(CCOC(c2ccc(F)cc2)c2ccc(F)cc2)CC1)c1ccccc1` (stereo not given) yielded a TGI of 29.5 µM. Take `O=C(O)c1cc2c3c(c1)[C@H]1C=CC[C@H]1CN3CC1CC=CC21` (stereo not given in full): the concentration for total growth inhibition (TGI) is over 100 µM.

`CNNC1=NS(=O)(=O)c2cc(C(=O)OC)c(Cl)cc2S1`: the TGI is over 10 µM.

As to `CCCCNC(=O)C1=C(C)NC(C)=C(C(=O)NCCCC)C1`, the TGI was over 100 µM. On the same count and under the same terms, then `CCCCCCc1ccc(O)cc1O`, with over 100 µM; and `C=C(/C=C/C=C(/CCC=C(C)C)COC(C)=O)[C@@H]1CC[C@]2([C@H](CCCO)/C(=C(/C)C=O)CC[C@]2(C)O)[C@@H]1O`, with 32.2 µM; and `O=C1C=CC(=O)c2c(O)c(Nc3ccc(OC(F)(F)F)cc3)c(Cl)c(O)c21`, with 2.23 µM.

On to `O=C1c2ccccc2C(=O)c2c1c(NCCNCCO)c1cc[nH]c1c2NCCNCCO`, for which the GI50 was 2.26 µM and the total growth inhibition concentration (TGI) is 9.44 µM.

`COc1cc([C@@H]2c3cc4c(cc3[C@@H](NC(=O)c3ccc(C(C)=O)cc3)C3COC(=O)[C@@H]32)OCO4)cc(OC)c1O` (stereo not given in full) showed a TGI of 75.6 µM.

For the compound `COc1cc2c3c(n(CCCn4cccn4)c(=O)c2cc1OC)-c1cc2c(cc1C3=O)OCO2`, the GI50 is 9.73 µM and the TGI was over 100 µM. For the compound `CC1=CC(=O)c2cccc(O)c2C1=O`, the total growth inhibition concentration (TGI) was found to be 32.3 µM. Still for that read-out and setting: the value for `COc1cc2c(cc1OC)C(C1(O)CCCCC1)NCC2` (stereo not given) was over 100 µM; that for `COC(=O)c1ccc(NCc2cc(O)c3ccccc3c2O)cc1` was 26.2 µM. The compound `O=[N+]([O-])/C=C/c1cccc(F)c1` came in with a TGI of 34.3 µM. In turn, `COc1ccc(C(F)(F)F)cc1NC(=O)O/N=C(/Cl)C(C)C` had a TGI of 34.2 µM. Still for that read-out and setting: the value for `CCOC(=O)NC(=O)c1cn(-c2ccc(CCOC(=O)CCCCCCCCC(=O)OCCc3ccc(-n4cc(C(=O)NC(=O)OCC)c(=O)[nH]c4=O)cc3)cc2)c(=O)[nH]c1=O` was over 100 µM. `Cc1cc(C)c(S(=O)(=O)Oc2ccccc2[N+](=O)[O-])c(C)c1`: the GI50 was 4.07 µM and the concentration for total growth inhibition (TGI) is over 100 µM. The compound `CSc1ccc2c(cc1=O)C(NC(=O)c1cc(O)c(OC(=O)O)c(O)c1)CCc1cc(O)c(O)c(O)c1-2` (stereo not given) displayed a TGI of over 9 µM. In the case of `CN([N-]C(=O)CC(=O)[N-]N(C)C(=S)c1ccccc1)C(=S)c1ccccc1.[Cu+2]`, the GI50 is 0.0992 µM and the TGI came to 0.225 µM. On to `CC(C)C(OC(=O)c1cc(NC(=S)c2ccccc2)ccc1Cl)C(C)C`, for which the total growth inhibition concentration (TGI) was over 100 µM.

As for `N#C/C(=C/c1cccs1)c1cccs1`, the GI50 was over 100 µM and the TGI is over 100 µM. `COC(=O)c1ccccc1C1CN=NC12Cc1c(C)c3c(c(C)c1C2=O)CCC3` (stereo not given) registered a concentration for total growth inhibition (TGI) of over 100 µM. `CCOC(=O)C1=C(C)N(Cc2ccc(Cl)cc2Cl)C2(O)C(OC)CC(=O)C3C(=O)N(c4ccccc4)C(=O)C132` (stereo not given) returned a concentration for total growth inhibition (TGI) of 22.2 µM. Compound `CCCC/C=C1\CCC(CN2CCOCC2)C1=O` (stereo not given) came in with a TGI of 30.8 µM. `N[C@H]1CCc2c1nc1c(c2-c2ccccc2)CC[C@@H]1N` gave a TGI of over 100 µM. In turn, `O=C(C1=CCC2(CC1)OCCO2)N(Cc1ccccc1)c1ccccc1I` returned a total growth inhibition concentration (TGI) of 37.7 µM.

On to `O=C1c2ccccc2C(=O)c2[nH]c(=O)c(/C=N/Nc3ccc([N+](=O)[O-])cc3)nc21`, for which the TGI stood at 4 µM. On the same count and under the same terms, then `NC(N)=N/N=C/c1c(-c2ccc(Cl)c(Cl)c2Cl)nc2sccn12`, with 2.76 µM.

As for `CCC1N2CCCCC2[C@@H]2c3[nH]c4ccccc4c3CCN12` (stereo not given in full), the TGI is over 100 µM. On to `O=C(CCNC(=O)OCc1ccccc1)OCCCNC(=O)OCc1ccccc1`, for which the TGI was over 100 µM. `COC(=O)c1cc(Cl)ccc1NC(=O)C1CCCCC1` showed a TGI of over 100 µM. For `COc1ccc(OC)c(-c2cn3nc(-c4c[nH]c5ccc(Br)cc45)sc3n2)c1`, the GI50 was 3.17 µM and the TGI was 20 µM. Consider `Cn1c2nc(=Nc3ccc(Cl)cc3)n3ccc4ccccc4c3c2c(=O)n1-c1ccccc1`, for which the TGI is over 100 µM. On to `CCC(=O)NCC1(c2c[nH]c3ccccc23)SCCS1`, for which the TGI was over 100 µM. In the case of `CNC(=O)OC(C)CN1c2ccccc2Sc2ccccc21` (stereo not given), the TGI is over 100 µM. On to `c1ccc(CN2CCC3(CC2)ONC2=NCCN23)cc1`, for which the GI50 was over 100 µM and the TGI was over 100 µM. Turning to `Cc1ccc2c(c1)C(=O)C1(C2)Cc2ccc(C)cc2C1=O`, the TGI is over 100 µM. Regarding `CN(C)CCCNC(=O)c1cc(NC(=O)CCCn2c3ccccc3c3ccccc32)cn1C`, the total growth inhibition concentration (TGI) was over 100 µM. With `O=c1[nH]nc2c3n[nH]c(=O)n3c3ccccc3n12`, the concentration for total growth inhibition (TGI) was over 100 µM.

As for `CN(C)CCNc1ccc2nnn3c4ccc(Cl)cc4c(=O)c1c23`, the TGI was 16.8 µM.

For `CCOC(=O)c1c2ccccc2n2c(=O)n(C)nnc12`, the TGI is over 100 µM. Regarding `CC(=O)[CH-]C(=O)c1ccccc1.CC(=O)[CH-]C(=O)c1ccccc1.[O-]c1ccc(O)cc1.[O-]c1ccc(O)cc1.[Ti+4]`, the GI50 was 32.4 µM and the total growth inhibition concentration (TGI) was over 100 µM.

These data come from PubChem BioAssay (NCI).
